Results from patent US20190330336A1 (SUTRO BIOPHARMA, published 2019).

T1: human LAG3 expressed on the cell surface of CHO or HEK293T cells (human, UniProt P18627 23-525)
T1 construct: also called CHO-LAG3; 293T-LAG3
T1 sequence: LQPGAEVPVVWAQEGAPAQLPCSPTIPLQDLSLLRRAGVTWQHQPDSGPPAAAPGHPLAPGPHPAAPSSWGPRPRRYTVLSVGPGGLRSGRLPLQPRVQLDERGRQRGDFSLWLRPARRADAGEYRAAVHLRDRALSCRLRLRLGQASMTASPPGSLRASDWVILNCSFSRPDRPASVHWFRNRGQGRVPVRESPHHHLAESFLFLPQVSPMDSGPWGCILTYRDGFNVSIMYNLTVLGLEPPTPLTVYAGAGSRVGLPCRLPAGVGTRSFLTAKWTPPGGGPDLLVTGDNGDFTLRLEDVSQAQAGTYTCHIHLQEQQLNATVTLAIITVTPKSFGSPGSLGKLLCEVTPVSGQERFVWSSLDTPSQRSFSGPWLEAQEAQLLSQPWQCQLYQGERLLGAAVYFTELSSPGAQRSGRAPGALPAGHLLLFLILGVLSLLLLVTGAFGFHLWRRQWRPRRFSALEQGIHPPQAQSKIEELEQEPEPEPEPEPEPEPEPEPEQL

T2: HIS-tagged (ACRO) or biotinylated recombinant human LAG3 protein (human, UniProt P18627 23-450, HIS tag or biotin, position not stated)
T2 construct: Soluble bought protein; also called rhLAG3
T2 sequence: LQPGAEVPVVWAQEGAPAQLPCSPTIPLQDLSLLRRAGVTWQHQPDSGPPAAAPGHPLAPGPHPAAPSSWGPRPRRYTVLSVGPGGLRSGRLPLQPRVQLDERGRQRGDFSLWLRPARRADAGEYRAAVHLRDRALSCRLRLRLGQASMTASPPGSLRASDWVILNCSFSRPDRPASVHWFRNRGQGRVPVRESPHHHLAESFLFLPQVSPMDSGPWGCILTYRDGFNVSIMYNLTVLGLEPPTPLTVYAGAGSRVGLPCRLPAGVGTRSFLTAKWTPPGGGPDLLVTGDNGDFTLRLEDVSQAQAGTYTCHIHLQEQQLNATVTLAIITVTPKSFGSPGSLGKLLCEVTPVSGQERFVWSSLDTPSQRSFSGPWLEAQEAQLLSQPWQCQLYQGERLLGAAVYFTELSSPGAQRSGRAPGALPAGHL

T3: human LAG3-Fc, R&D Systems #2319-L3 (human, UniProt P18627 23-450)
T3 construct: Bought protein; also called Human LAG3 (Biacore); not shown: human Fc of the bought fusion protein
T3 sequence: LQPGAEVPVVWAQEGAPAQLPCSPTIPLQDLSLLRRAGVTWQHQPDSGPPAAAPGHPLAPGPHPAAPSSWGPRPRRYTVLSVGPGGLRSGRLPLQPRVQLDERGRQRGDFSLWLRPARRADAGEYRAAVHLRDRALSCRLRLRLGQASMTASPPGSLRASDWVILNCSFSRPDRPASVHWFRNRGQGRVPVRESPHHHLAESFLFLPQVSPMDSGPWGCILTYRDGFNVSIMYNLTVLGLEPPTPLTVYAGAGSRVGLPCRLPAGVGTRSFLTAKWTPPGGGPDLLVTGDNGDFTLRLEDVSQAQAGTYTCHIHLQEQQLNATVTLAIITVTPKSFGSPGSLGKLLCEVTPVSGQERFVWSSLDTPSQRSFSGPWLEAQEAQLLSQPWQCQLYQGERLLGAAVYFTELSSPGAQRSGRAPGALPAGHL


Tests used:
[1] = target: T1, human LAG3 expressed on the cell …; assay: flow cytometry on CHO cells expressing human LAG3
Description: Antibody variants were tested in a fluorescence-activated cell sorting (FACS) cell-binding assay. Chinese Hamster Ovary (CHO) cells or HEK293T cells stably expressing the human target molecule LAG3 on the cell surface (CHO-LAG3, 293T-LAG3) were used to screen for cell binders by flow cytometry. Parental CHO or 293T cells were used as a negative control to determine background-binding levels. Cells were cultured in RPMI with 10% FCS Penicillin/Streptomycin (or Pen/Strep) and glutamine (or Gln) and split every 3-4 days at 10⁵ cells/ml.
A mix of parental CHO cells and CHO-LAG3 cells (or 293T and 293T-LAG3 cells) was prepared as follows: Parental CHO cells were washed 2× in PBS then incubated in PBS containing 1 nM CellTrace™ Oregon Green488® (Life Technologies) at 37° C. for 30 minutes. […] Parental CHO cells and CHO-LAG3 cells were then mixed to obtain a 1:1 cell suspension and seeded at 100 μl per well on 96 well polypropylene plates. Plates were spun at 1500 rpm for 5 minutes and cell pellets were suspended in 50 μl FACS buffer containing 6-12 point dilutions of anti-LAG3 variants starting from concentrations of ˜100-200 nM antibody, dispensed using BioMekFX (Beckman Coulter). Cells were then incubated on ice for 1 hr, washed with FACS buffer and incubated for 1 hr on ice with 50 μl FACS buffer containing 2.5 μg/ml R-Phycoerythrin-conjugated Goat Anti-Human IgG (Jackson ImmunoResearch) or AF647-conjugated Goat Anti-mouse IgG (Life Technologies) dispensed using BioMekFX (Beckman Coulter). Cells were then washed 2× with FACS buffer and fixed for 10 minutes in 200 μl PBS with 2% PFA prior to fluorescence detection. Samples were acquired using a Beckton Dickinson LSRII FACS. Mean Fluorescence Intensity of LAG3 antibody binding was analyzed using Tree Star, Inc. FlowJo® software.

[2] = target: T2, HIS-tagged (ACRO) or biotinylated …; assay: FACS competition: antibody inhibits rhLAG3 binding to MHCII on DAUDI cells
Description: DAUDI cells express high levels of Major Histocompatibility Class II (MHCII) molecules, a natural ligand for LAG3, on the cell surface. DAUDI cells were used to screen for antibodies that inhibit binding of HIS-tagged (ACRO) or biotinylated recombinant human LAG3 protein (rhLAG3) to MHCII expressed on the cell surface.
DAUDI cells were cultured in RPMI w/10% FCS Pen/Strep and Gln and split every 3-4 days at 10^5 cells/ml. Cells were washed 2× with FACS buffer (PBS w/2% FCS), […] at a final concentration of 1×10⁶ cells/ml and seeded at 100 μl per well on 96 well polypropylene plates. Plates were spun at 1500 rpm for 5 minutes and cell pellets were suspended in 50 μl FACS buffer containing 8 point 1:3 dilutions (2× concentrated) of anti-LAG3 antibody variants, starting from high concentration of ˜600 nM. 50 μl FACS buffer containing 10-20 μg/ml of the HIS-tagged rhLAG3 protein or 40 μg/ml of the biotinylated rhLAG3 protein were then added to the cells. Cell were then incubated in ice for 1 hr, washed with FACS buffer and incubated for 1 hr in ice with 50 μl FACS buffer containing 2 μg/ml R-Phycoerythrin-conjugated Streptavidin (eBiosciences) or 1 μg/ml R-Phycoerythrin-conjugated anti-HIS IgG (Abcam). Cell were washed 2× with FACS buffer and fixed for 10 minutes in 200 μl PBS w/2% PFA prior to acquisition.

[3] = target: T3, human LAG3-Fc, R&D Systems #2319-L3; assay: SPR (Biacore), antibody captured on anti-Flag chip, human LAG3-Fc analyte, 25 C, 1:1 fit
Description: Anti-Flag M2 IgG (Sigma-Aldrich # F9291) was immobilized onto a CMS chip (GE Life Sciences) using amine coupling chemistry (from Amine Coupling Kit, GE Life Sciences). The immobilization steps were carried out at a flow rate of 25 μL/min in 1×HBS-EP+ buffer (GE Life Sciences; 10× Stock diluted before use). The sensor surfaces were activated for 7 min with a mixture of NHS (0.05 M) and EDC (0.2 M). The Anti-Flag M2 IgG was injected over all 4 flow cells at a concentration of 25 μg/mL in 10 mM sodium acetate, pH 4.5, for 7 min. Ethanolamine (1 M, pH 8.5) was injected for 7 min to block any remaining activated groups. An average of 12,000 response units (RU) of capture antibody was immobilized on each flow cell.
Off-rate and Kinetic binding experiments were performed at 25° C. using 1×HBS-EP+ buffer. Test and control antibodies were injected over the Anti-Flag surface at concentrations of 5-10 μg/mL for 12 seconds at a flow rate of 10 μL/min on flow cells 2, 3 and 4, followed by a buffer wash for 30 seconds at the same flow rate. Kinetic characterization of antibody samples was carried out with a single concentration of antigen (for off-rate ranking) or a dilution series of antigen (for kinetic characterization) and 1 injection of 0 nM antigen. After capturing ligand (antibody) on the anti-Flag surface, the analyte (human LAG3-Fc, R&D Systems #2319-L3; or cynomolgus LAG3-Fc, accession #NC_022282.1) was bound at 50, 25, 12.5, 6.25, and 0 nM for 180 seconds, followed by a 600 second dissociation phase at a flow rate of 50 μl/min. Between each ligand capture and analyte binding cycle, regeneration was carried out using 2 injections of 10 mM glycine pH 2.0 for 30 seconds at 30 μL/min, followed by a 30 second buffer wash step.
The data were fit with the Biacore T200 Evaluation software, using a 1:1 Langmuir binding model. KD (affinity, nM) was determined as a ratio of the kinetic rate constants calculated from the fits of the association and dissociation phases.

Kd [1] [nM]	IC50 [2] [nM]	Kd [3] [nM]	koff [3] [s⁻¹]	kon [3] [M⁻¹ s⁻¹]	Binder
1.06	1.2	0.676	0.000536	794000	SRP1449-B07 (scFv) scFv-Fc: QVQLVESGGGVVQPGRSLRLSCAASGFTFSSYGMHWVRQAPGKGLEWVAVIWYDGSNKYYADSVKGRFTISRDNSKNTLYLQMNSLRAEDTAVYYCAREWAVSSWDYGMDVWGQGTTVTVSSGGGGSGGGGSGGGGS[about 100 residues cut from this listing]FTFGPGTKVDIKAAGSDQ[human IgG1 Fc with changes cut from this listing]
3.37	1.7	3.1	0.000807	261000	SRP1449-F01 (scFv) scFv-Fc: QVQLVESGGGVVQPGRSLRLSCAASGFTFSSYGMHWVRQAPGKGLEWVAVIWYDGSYKYYADSVKGRFAISRDNSKNTLYLQMNSLRAEDTAVYYCARESEVASWDYGLDVWGQGTTVTVSSGGGGSGGGGSGGGGS[about 100 residues cut from this listing]FGPGTKVDIKAAGSDQ[human IgG1 Fc with changes cut from this listing]
1.54	2.3	1.36	0.000627	460000	SRP1449-D05 (scFv) scFv-Fc: QVQLVESGGGVVQPGRSLRLSCAASGFTFRSFGMHWVRQAPGKGLEWVAVIWYDGSVKYYADSVKGRFTISRDNSKNTLYLQMNSLRAEDTAVYYCAREWADVSWDAGLDVWGQGTTVTVSSGGGGSGGGGSGGGGS[about 100 residues cut from this listing]KFGPGTKVDIKAAGSDQ[human IgG1 Fc with changes cut from this listing]
0.32	1.1	0.0412	6.78e-05	1.65e+06	SRP1449-G09.2 (scFv) scFv-Fc: QVQLVESGGGVVQPGRSLRLSCAASGFTFSSYGMHWVRQAPGKGLEWVAVIWYDGSYKYYADSVKGRFTISRDNSKNTLYLQMNSLRAEDTAVYYCAREEAPENWDYALDVWGQGTTVTVSSGGGGSGGGGSGGGGS[about 100 residues cut from this listing]SFGPGTKVDIKAAGSDQ[human IgG1 Fc with changes cut from this listing]
1.92	1	0.64	0.000302	472000	SRP1449-B03 (scFv) scFv-Fc: QVQLVESGGGVVQPGRSLRLSCAASGFTFSSYGMHWVRQAPGKGLEWVAAIWYDASYKYYADSVKGRFTISRDNSKNTLYLQMNSLRAEDTAVYYCAREWAVASWDYALDVWGQGTTVTVSSGGGGSGGGGSGGGGSEIVLTQSPGTMSLSPGERATLSCRASQSVSSSYLAWYQQKPGQAPRLLIYGASSRATGIPDRFSGSGSGTDFTLTISRLEPEDFAVYYCQQYDRSPLTFGPGTKVDIKAAGSDQ[human IgG1 Fc with changes cut from this listing]
